# Source: the supplement of paper PMC10037445
# Whole data set: some 2,900 compounds, median “NF-kB SEAP reporter activity, fold change vs agonist alone” near 0.99, cut for the highest 2% near 2.6. The list shows a part of the results.
# What was measured:
# RAW-Dual [1] = assay: NF-kB SEAP reporter activity, fold change vs agonist alone; cytotoxicity flag (confluency mask): not cytotoxic; higher = enhanced NF-kB activity
# Summary of the method: (§1)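 Reporter activity is given as fold change relative to agonist-alone wells. To measure it, 50 nL of library stock was pin-tooled onto RAW-Dual macrophages (50,000 cells/well, DMEM, 384-well plates), a PRR agonist followed 1 h later, and cells stayed at 37 °C, 5% CO2. Twenty hours on, supernatant was assayed for IRF (QuantiLuc luminescence) and NF-κB (QuantiBlue, 620 nm absorbance), and wells under 70% of agonist-control IncuCyte confluency in both mask sets were marked cytotoxic.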
# RAW-Dual [2] = assay: NF-kB SEAP reporter activity, fold change vs agonist alone; higher = enhanced NF-kB activity; conditions: library stock concentration (final ~1000-fold dilution): 10 mM
# Summary of the method: as §1
# RAW-Dual [3] = assay: NF-kB SEAP reporter activity, fold change vs agonist alone; cytotoxicity flag (confluency mask): cytotoxic (confluency <70% of control); higher = enhanced NF-kB activity
# Summary of the method: as §1
# [4] = agonist: ODN 1826 (TLR9) 0.5 ug/mL
# [5] = agonist: Pam2CSK4 (TLR2/6) 0.1 ug/mL
# [6] = agonist: Pam3CSK4 (TLR2/1) 0.1 ug/mL
# [7] = cytotoxicity flag (confluency mask): not cytotoxic, agonist: Imiquimod (TLR7) […]
# [8] = cytotoxicity flag (confluency mask): not cytotoxic, agonist: MPLA (TLR4) […]
# [9] = cytotoxicity flag (confluency mask): cytotoxic (confluency <70% of control), agonist: MPLA (TLR4) […]
smiles,measurement,setting,value
O=C(/C=C/c1cccnc1)c1ccncc1 (library stock concentration (final ~1000-fold dilution): 10 mM),NF-kB SEAP reporter activity,RAW-Dual [1]; agonist: LPS (TLR4) 0.1 ug/mL,1.03
same,NF-kB SEAP reporter activity,RAW-Dual [1]; [4],0.938
same,NF-kB SEAP reporter activity,RAW-Dual [1]; [5],1.21
same,NF-kB SEAP reporter activity,RAW-Dual [1]; [6],1.05
O=C(/C=C/c1cccnc1)c1ccncc1,NF-kB SEAP reporter activity,RAW-Dual [2]; [7],0.871
same,NF-kB SEAP reporter activity,RAW-Dual [2]; [8],0.953
O=C1C(CCC(O)c2ccc(F)cc2)C(c2ccc(O)cc2)N1c1ccc(F)cc1 (centres undefined) (library stock concentration (final ~1000-fold dilution): 10 mM),NF-kB SEAP reporter activity,RAW-Dual [1]; agonist: LPS (TLR4) 0.1 ug/mL,1.42
same,NF-kB SEAP reporter activity,RAW-Dual [1]; [4],0.665
same,NF-kB SEAP reporter activity,RAW-Dual [1]; [5],0.889
same,NF-kB SEAP reporter activity,RAW-Dual [1]; [6],0.589
O=C1C(CCC(O)c2ccc(F)cc2)C(c2ccc(O)cc2)N1c1ccc(F)cc1 (centres undefined),NF-kB SEAP reporter activity,RAW-Dual [2]; [7],0.952
same,NF-kB SEAP reporter activity,RAW-Dual [2]; [8],1.38
OCC1=CC(O)C2C=COC(OC3OC(CO)C(O)C(O)C3O)C12 (centres undefined) (library stock concentration (final ~1000-fold dilution): 10 mM),NF-kB SEAP reporter activity,RAW-Dual [1]; agonist: LPS (TLR4) 0.1 ug/mL,1.02
same,NF-kB SEAP reporter activity,RAW-Dual [1]; [4],1.06
same,NF-kB SEAP reporter activity,RAW-Dual [1]; [5],0.976
same,NF-kB SEAP reporter activity,RAW-Dual [1]; [6],0.982
OCC1=CC(O)C2C=COC(OC3OC(CO)C(O)C(O)C3O)C12 (centres undefined),NF-kB SEAP reporter activity,RAW-Dual [2]; [8],0.996
COC1CCN(C(=O)c2cc(Cc3n[nH]c(=O)c4ccccc34)ccc2F)CC1 (library stock concentration (final ~1000-fold dilution): 10 mM),NF-kB SEAP reporter activity,RAW-Dual [1]; agonist: LPS (TLR4) 0.1 ug/mL,1.74
same,NF-kB SEAP reporter activity,RAW-Dual [1]; [4],1.11
same,NF-kB SEAP reporter activity,RAW-Dual [1]; [5],1.12
same,NF-kB SEAP reporter activity,RAW-Dual [1]; [6],1.78
COC1CCN(C(=O)c2cc(Cc3n[nH]c(=O)c4ccccc34)ccc2F)CC1,NF-kB SEAP reporter activity,RAW-Dual [2]; [7],1.12
same,NF-kB SEAP reporter activity,RAW-Dual [2]; [8],1.27
c1cncc(CN2CCC(n3ncc4c(N5CCOCC5)nc(-c5ccc6[nH]ccc6c5)nc43)CC2)c1 (library stock concentration (final ~1000-fold dilution): 10 mM),NF-kB SEAP reporter activity,RAW-Dual [1]; agonist: LPS (TLR4) 0.1 ug/mL,2.91
COC(=O)CC(O)(CCCC(C)(C)O)C(=O)OC1C(OC)=CC23CCCN2CCc2cc4c(cc2C13)OCO4 (centres undefined) (library stock concentration (final ~1000-fold dilution): 10 mM),NF-kB SEAP reporter activity,RAW-Dual [3]; agonist: LPS (TLR4) 0.1 ug/mL,0.397
same,NF-kB SEAP reporter activity,RAW-Dual [3]; [4],0.169
same,NF-kB SEAP reporter activity,RAW-Dual [3]; [5],0.0771
same,NF-kB SEAP reporter activity,RAW-Dual [3]; [6],0.133
COC(=O)CC(O)(CCCC(C)(C)O)C(=O)OC1C(OC)=CC23CCCN2CCc2cc4c(cc2C13)OCO4 (centres undefined),NF-kB SEAP reporter activity,"RAW-Dual [2]; cytotoxicity flag (confluency mask): cytotoxic (confluency <70% of control), agonist: Imiquimod (TLR7) […]",0.141
same,NF-kB SEAP reporter activity,RAW-Dual [2]; [9],0.255
COc1ccc(C[C@@H]2c3cc(Oc4cc(C[C@@H]5c6cc(OC)c(OC)cc6CCN5C)ccc4O)c(OC)cc3CCN2C)cc1,NF-kB SEAP reporter activity,RAW-Dual [2]; [7],0.915
same,NF-kB SEAP reporter activity,RAW-Dual [2]; [8],1.09
COc1ccc(C[C@@H]2c3cc(Oc4cc(C[C@@H]5c6cc(OC)c(OC)cc6CCN5C)ccc4O)c(OC)cc3CCN2C)cc1 (library stock concentration (final ~1000-fold dilution): 10 mM),NF-kB SEAP reporter activity,RAW-Dual [1]; agonist: LPS (TLR4) 0.1 ug/mL,1.06
same,NF-kB SEAP reporter activity,RAW-Dual [1]; [4],0.182
same,NF-kB SEAP reporter activity,RAW-Dual [1]; [5],0.121
same,NF-kB SEAP reporter activity,RAW-Dual [1]; [6],0.622
Nc1ncnc2c1ncn2C1CCCO1 (centres undefined) (library stock concentration (final ~1000-fold dilution): 10 mM),NF-kB SEAP reporter activity,RAW-Dual [1]; agonist: LPS (TLR4) 0.1 ug/mL,1.39
same,NF-kB SEAP reporter activity,RAW-Dual [1]; [4],0.835
same,NF-kB SEAP reporter activity,RAW-Dual [1]; [5],1.03
same,NF-kB SEAP reporter activity,RAW-Dual [1]; [6],0.983
Nc1ncnc2c1ncn2C1CCCO1 (centres undefined),NF-kB SEAP reporter activity,RAW-Dual [2]; [7],0.792
same,NF-kB SEAP reporter activity,RAW-Dual [2]; [8],0.86
CC1CC(C(=O)O)C2CCC3(C)C(=CCC4C5(C)CCC(O)C(C)(C)C5CCC43C)C2C1C (centres undefined),NF-kB SEAP reporter activity,RAW-Dual [2]; [7],0.951
same,NF-kB SEAP reporter activity,RAW-Dual [2]; [8],0.975
CC1CC(C(=O)O)C2CCC3(C)C(=CCC4C5(C)CCC(O)C(C)(C)C5CCC43C)C2C1C (centres undefined) (library stock concentration (final ~1000-fold dilution): 10 mM),NF-kB SEAP reporter activity,RAW-Dual [1]; agonist: LPS (TLR4) 0.1 ug/mL,1.46
same,NF-kB SEAP reporter activity,RAW-Dual [1]; [4],0.926
same,NF-kB SEAP reporter activity,RAW-Dual [1]; [5],0.938
same,NF-kB SEAP reporter activity,RAW-Dual [1]; [6],0.898
CNCCN(C)Cc1c[nH]nc1-c1ccc(OC2CC(OCCC3CCOCC3)C2)cc1.Cl.Cl (centres undefined),NF-kB SEAP reporter activity,RAW-Dual [2]; [7],0.935
same,NF-kB SEAP reporter activity,RAW-Dual [2]; [8],1.07
CNCCN(C)Cc1c[nH]nc1-c1ccc(OC2CC(OCCC3CCOCC3)C2)cc1.Cl.Cl (centres undefined) (library stock concentration (final ~1000-fold dilution): 10 mM),NF-kB SEAP reporter activity,RAW-Dual [1]; agonist: LPS (TLR4) 0.1 ug/mL,0.836
same,NF-kB SEAP reporter activity,RAW-Dual [1]; [4],0.674
same,NF-kB SEAP reporter activity,RAW-Dual [1]; [5],0.874
same,NF-kB SEAP reporter activity,RAW-Dual [1]; [6],0.586
Cc1[nH]c2ccccc2c1CCNCc1ccc(/C=C/C(=O)NO)cc1 (library stock concentration (final ~1000-fold dilution): 10 mM),NF-kB SEAP reporter activity,RAW-Dual [3]; agonist: LPS (TLR4) 0.1 ug/mL,4.6
Cc1[nH]c2ccccc2c1CCNCc1ccc(/C=C/C(=O)NO)cc1,NF-kB SEAP reporter activity,RAW-Dual [2]; [9],2.63
COc1ccnc(C[S+]([O-])c2nc3cc(OC(F)F)ccc3[nH]2)c1OC (centres undefined) (library stock concentration (final ~1000-fold dilution): 10 mM),NF-kB SEAP reporter activity,RAW-Dual [1]; agonist: LPS (TLR4) 0.1 ug/mL,0.981
same,NF-kB SEAP reporter activity,RAW-Dual [1]; [4],0.923
same,NF-kB SEAP reporter activity,RAW-Dual [1]; [5],0.959
same,NF-kB SEAP reporter activity,RAW-Dual [1]; [6],0.966
COc1ccnc(C[S+]([O-])c2nc3cc(OC(F)F)ccc3[nH]2)c1OC (centres undefined),NF-kB SEAP reporter activity,RAW-Dual [2]; [7],0.898
same,NF-kB SEAP reporter activity,RAW-Dual [2]; [8],1.02
Cc1cc(C)c(S(=O)(=O)n2cc(C)cc2C)c(C)c1,NF-kB SEAP reporter activity,RAW-Dual [2]; [7],0.822
same,NF-kB SEAP reporter activity,RAW-Dual [2]; [8],0.971
Cc1cc(C)c(S(=O)(=O)n2cc(C)cc2C)c(C)c1 (library stock concentration (final ~1000-fold dilution): 10 mM),NF-kB SEAP reporter activity,RAW-Dual [1]; agonist: LPS (TLR4) 0.1 ug/mL,1.7
same,NF-kB SEAP reporter activity,RAW-Dual [1]; [4],0.758
same,NF-kB SEAP reporter activity,RAW-Dual [1]; [5],0.761
same,NF-kB SEAP reporter activity,RAW-Dual [1]; [6],0.902
C=CC(=O)Nc1ccc(CN2C(=O)N(c3cc(OC)cc(OC)c3)Cc3cnc(Nc4ccc(N5CCN(C)CC5)cc4)nc32)cc1 (library stock concentration (final ~1000-fold dilution): 10 mM),NF-kB SEAP reporter activity,RAW-Dual [1]; agonist: LPS (TLR4) 0.1 ug/mL,0.451
same,NF-kB SEAP reporter activity,RAW-Dual [1]; [4],0.376
same,NF-kB SEAP reporter activity,RAW-Dual [1]; [5],0.217
same,NF-kB SEAP reporter activity,RAW-Dual [1]; [6],0.323
C=CC(=O)Nc1ccc(CN2C(=O)N(c3cc(OC)cc(OC)c3)Cc3cnc(Nc4ccc(N5CCN(C)CC5)cc4)nc32)cc1,NF-kB SEAP reporter activity,RAW-Dual [2]; [7],0.353
same,NF-kB SEAP reporter activity,RAW-Dual [2]; [8],0.768
